# Measured values reported in US12551573B2, “Compositions and methods for the targeting of PCSK9” (Scribe Therapeutics Inc., priority 2022, dated 2026).
# B1: DOMAIN_18817 (protein, listed as Monodelphis domestica)
# chain: GARVLVSFADVAVYFSPEEWGRLRPEQRALYRDVMRETYGHLGALGFPGPKPALISWMEEAAWDSEAKPVIKRLEDVGQPP
# B2: DOMAIN_19125 (protein, listed as Otolemur garnettii)
# chain: GTVVFSDVSVDFSQEEWECLDPVQRDLYREVMLENYSNLVSVGAGPYIPKPQVISLLEQGKEPWMVGRELTRGLCSDLESM
# B3: DOMAIN_18734 (protein, listed as Monodelphis domestica)
# chain: PGQEVVTFKDMAVDFTREEWRLLTPPQKELYKEVMLENARNLLSVGFAVPGDVISYLEQREAPWLLEQEGLRSCSPGDISP
# B4: DOMAIN_19028 (protein, listed as Pongo sp.)
# chain: ACGSITFRDVAIDFSHQEWEYLNLVQKTLYQEVMMENYDNLVLLGHSKSKPDLITLLEQGKEPWMIVREETRGECTAELQS
# B5: DOMAIN_18698 (protein, listed as Felis catus)
# chain: FQESVTFEDVAVYFSENEWIGLAPAQRVLYRDVMLENYGVVASLAFPFPKPALISQLERGEAPWCKAPQGAVDGECPRGVS
# B6: DOMAIN_18677 (protein, listed as Monodelphis domestica)
# chain: FQASVTFKDVAVDFTWEEWRLLDPPQKELFWEVMLENYRNLVCLGLADSNKDVMISELESGEPHWIPTGGVLRSCWPGWES
# B7: DOMAIN_18724 (protein)
# chain: FQEPVTFEDVAVYFTQNEWASLHPMQRALHREVMLENYANVTSLSAFPFPKPDLIFQLEQGEAAWGPDPWTLAGGETLRGM
# modifications: Pan troglodytes
# B8: DOMAIN_18891 (protein, listed as Pongo sp.)
# chain: SKAPVTFGDLAIYFSQEEWEWLSPIQKDLYEDVMLENYRNLVSLGLSFRRPNVITLLEKGKAPWMVEPVRRRRAPGWTTMM
# B9: DOMAIN_18977 (protein, listed as Pongo sp.)
# chain: B8 chain with G76E, W77L, T79E, M80A, M81S
# B10: DOMAIN_19404 (protein, listed as Monodelphis domestica)
# chain: IQGSLTFKDVAMNFTQEEWCLLDHSQKELYLEVMLENVQNLLSVGLPVPREYYTSYFQQEKAPWLLVQKGPRNSSPEAETN
# B11: DOMAIN_18752 (protein, listed as Monodelphis domestica)
# chain: APAPVSFRDVAVDFTRQEWQLLAPAQRALYREVMLENYRNVASLGHPVSKPNVIFQLEQSEAPWMPEGEAARSLPPDWEAR
# B12: DOMAIN_18594 (protein, listed as Monodelphis domestica)
# chain: AQVLVTFQDVAVDFTQEEWRLLDPGQKELYKEVMLENAENMLFLGLPVPREDWFFHFHEGGDPWMLEGKGPSISRLDEERH
# B13: DOMAIN_19079 (protein, listed as Otolemur garnettii)
# chain: SVMFNDISIVFSQEEWEYLDLEQKDLYKDVMLENYGNLVSLGCFIAKPDVISLLEQGKEPWKVIRKGRRGYPDLETRYETK
# B14: DOMAIN_19072 (protein)
# chain: FQGSVSFKDVTVGFTLEEWQHLDSTQRSLYRDVMLENYSNLVSLGYCVTKPEVIFRLEQGEEPWILEEEFPSQSFPESWET
# modifications: Vulpes vulpes
# B15: DOMAIN_19220 (protein, listed as Camelus dromedarius)
# chain: TPEPVRFADVAVYFSLEEWGCLQPAQRALYRDVMRETYGHLGALGFRGTKPALISWVEKEAELWGPDARDPEVGECLTEAD
# B16: DOMAIN_18580 (protein)
# chain: SQESVAFEDVAVYFTTKEWAIMVPAERALYRDVMLENYEAVAFVVPPTSKPALISHLEQGKESCFIRPQGVLSRSDWRAGL
# modifications: Cercocebus atys
# B17: DOMAIN_18589 (protein, listed as Neomonachus schauinslandi)
# chain: QPREAVTFKDVEVTFSQDEWGWLDPAQRNLYRDVMLENYGNVVSLVGPFTKPVLISWLEAREPWGLNVQGAQPKGKPGVAP
# B18: DOMAIN_18935 (protein)
# chain: HQEVVTFEDVAVYFTQTEWAGLSPAQRALYRSVMLEIYGNLTSLGYPVPKPALVSLLERGDLPVGLETQDNPPAQGTRDIY
# modifications: Ovis aries
# B19: DOMAIN_19056 (protein)
# chain: B18 chain with Q16R, N40S, V54I
# modifications: source 1..81: note = Bos indicus x Bos taurus
# B20: DOMAIN_18536 (protein, listed as Camelus dromedarius)
# chain: WKESLSFEDVALYFTREEWSRLDWAQKDLYRDVMLENYRNMIVLGFQFPKPEVICQLEQWEEPWILDLPRAGTRKASGSAC
# B21: DOMAIN_19207 (protein, listed as Enhydra lutris)
# chain: PQDLMTFEDVAVEFTQWEWGQLDPAQKDLYRVVMLENFKNLASLGFPVAKPYVISQLEKGKEPCVLEGEISTDWEKRPKAK
# B22: DOMAIN_18618 (protein, listed as Physeter macrocephalus)
# chain: AQGLVLFEDVSVDFTQKEWQLLDRTQRLLYRDVMLENYGHLVSLGHCVSKPELILKLEQEEEPWILKGQLASESHPEVQRT
# B23: DOMAIN_18760 (protein)
# chain: ALRSVMFSDVSIDFSPEEWEYLDLEQKDLYRDVMLENYSNLVSLAGCFISKPDVISSLEQGKEPWKVVRKGRRQYPDLETK
# modifications: Pan troglodytes
# B24: DOMAIN_19351 (protein, listed as Pongo sp.)
# chain: YEEMVTFEDVAVHFTKTEWTGLSPAQRALYRSVMLENFGNLTALGYPVPKPALISLLEGGDMAWGLEAQDDPLAEMTKNVC
# B25: DOMAIN_19221 (protein, listed as Camelus dromedarius)
# chain: PQGLVTFGDVAVDFSQEEWEWLDCAQRTLYRSVMLENYRSLVSLGLCVSKPEMISSLEQRKEPWTVKRKCTRGQCPDSEAV
# B26: DOMAIN_18971 (protein, listed as Enhydra lutris)
# chain: RPGAVSFADVAVYFSPEEWGCLRPAQRALYRDVMRETYGHLGALGFAGSKPALISWLERKKEVWSPEAEDPEDGARHPGSG
# B27: DOMAIN_18873 (protein, listed as Camelus dromedarius)
# chain: FQESVTFEDVAIYFSENEWTGLAPAQRALYRDVMLENYGAVASLAAFPFPKPALIFQLEQGEAPWSSAPQGALDGEGPRGI
# B28: DOMAIN_19005 (protein, listed as Enhydra lutris)
# chain: SQSLVTFGDVAVDFSREEWEWLSSAQRTLYRTVMLENYRNLVSLGLCISKPDMISSLEQRKEPWMAKRKLTRGRCPDLKIV
# B29: DOMAIN_18785 (protein, listed as Leptonychotes weddellii)
# chain: LLTFEDVAVSFSEEEWKLLDPTQKILYNDVMQENYETVISLGLKLKNDTGNDQPISLSALEIQASGCKVLRKARMKVAQKT
# B30: DOMAIN_18753 (protein, listed as Monodelphis domestica)
# chain: SITFKDVVVDFTQEEWCLLDPSQKELYREVMLENVQNLFFVEAETNFEVKEMSTKMRLFVEGSNSPRGMKRNPCDFLFREI
# B31: DOMAIN_18830 (protein, listed as Monodelphis domestica)
# chain: RQERVTFGDVAVDFTLDEWVCLDSAQKALYRDVMLENYGHLVCLGLAGAKPAVIQRLERGEAAWCPGVPGSRLPDWETRLE
# B32: DOMAIN_18835 (protein, listed as Camelus dromedarius)
# chain: PLETVTFGDVVLDFTQEEWALLDTSQKKLFRDVMLENIHHLVSVGYQISKSDVILQLEQGKELWREGEGRPQGRGPGSESP
# B33: DOMAIN_18947 (protein, listed as Enhydra lutris)
# chain: HQGLLTFRDVAVEFSLEEWGRLTHTQRQLYRDVMLENYGHLLFLGLIVSKPDLVSFLEQKKEPWNLKRKKTVAFHPAISSH
# B34: DOMAIN_19385 (protein, listed as Monodelphis domestica)
# chain: AQEMVTFQDVAVDFTREEWCLLSPPQKELYKEVMLENARNLLSVGLPALPEDVISYLEQREAPWMLEREGPRSCCPGEILL
# B35: DOMAIN_134 (protein, listed as Pan paniscus)
# chain: PAQGPGKARPSRKRGRRPRALKFVDVAVYFSPEEWGCLRPAQRALYRDVMRETYGHLGALGCAGPKPALISWLERNTDDWE
# Tested on: HBEGF locus
# Format: cell-based, human
# Conditions: high-throughput screen of dXR repression of the HBEGF gene; abundance of each domain in the library before and after diphtheria toxin selection; HEK293T cells
row,Molecule,Log2 (fold change)
1,B1,2.2496
2,B2,2.9892
3,B3,2.8813
4,B4,2.3618
5,B5,3.3067
6,B6,2.2686
7,B7,3.2062
8,B8,3.6429
9,B9,3.6262
10,B10,2.0125
11,B11,3.5544
12,B12,3.2119
13,B13,4.0159
14,B14,2.8133
15,B15,3.1947
16,B16,4.4477
17,B17,3.039

row,Molecule,Log2 (fold change)
1,B18,3.4507
2,B19,3.0542
3,B20,3.2028
4,B21,2.655
5,B22,2.6489
6,B23,3.1806
7,B24,3.1988
8,B25,3.1733
9,B26,3.3941
10,B27,3.262
11,B28,3.4092
12,B29,2.9139
13,B30,2.6101
14,B31,3.2719
15,B32,2.4878
16,B33,3.3167
17,B34,2.9198

# Same assay, conditions: high-throughput screen of dXR repression of the HBEGF gene; change in abundance of each domain in the library before and after diphtheria toxin selection
row,Molecule,Log2 (fold change)
1,B35,2.9322

# Changes are numbered by the printed parent chain.
